The other results are listed elsewhere or left out. The full chains were built here from the parent and the listed change. Values near 0.05 are background.
B1: TEV protease; numbered along this chain (parent)
chain: MGESLFKGPRDYNPISSSICHLTNESDGHTTSLYGIGFGPFIITNKHLFRRNNGTLVVQSLHGVFKVKDTTTLQQHLVDGRDMIIIRMPKDFPPFPQKLKFREPQREERICLVTTNFQTKSMSSMVSDTSCTFPSGDGIFWKHWIQTKDGQCGSPLVSTRDGFIVGIHSASNFTNTNNYFTSVPKNFMELLTNQEAQQWVSGWRLNADSVLWGGHKVFMVKPEEPFQPVKEATQL

Variants of: B1
Experiment: raw area under fraction-flipped curve 0-4 h after induction (AUC4h, not background-subtracted), DNA-recorder readout of cleavage of the substrate (dimensionless); higher = more cleavage of the substrate by the protease variant
Details: temperature: 34 °C; time window: 0-4 h after rhamnose induction
Procedure: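 In vivo DNA recorder in E. coli TOP10(DE3) ΔrhaA at 34 °C. Each TEVp single-site mutant (parent TEVp 0) is paired with a single-site variant of the 7-mer TEVs (canonical ENLYFQ|S). The substrate sits between flexible linkers in a Bxb1-sfGFP-TEVs-SsrA fusion, so cleavage stabilises Bxb1 and speeds flipping of a recombination array, read by NGS. The value is the raw area under the fraction-flipped curve over 0-4 h after rhamnose induction (AUC4h), with ≥20 reads per time point. It is not background-subtracted; inactive controls average about 0.047.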
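Note: Bxb1 expression induced with 0.2% (w/v) L-rhamnose at OD600 near 0.5, cultures sampled hourly, flipped fraction per protease–substrate barcode pair counted by paired-end Illumina sequencing.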

Variant | area with substrate EALYFQS | area with substrate ECLYFQS | area with substrate EDLYFQS | area with substrate EELYFQS | area with substrate EGLYFQS | area with substrate EHLYFQS | area with substrate EILYFQS | area with substrate EKLYFQS | area with substrate ELLYFQS | area with substrate EMLYFQS | area with substrate EPLYFQS | area with substrate EQLYFQS | area with substrate ERLYFQS | area with substrate ESLYFQS | area with substrate ETLYFQS | area with substrate EVLYFQS | area with substrate EWLYFQS | area with substrate EYLYFQS | area with substrate EFLYFQS
MGESLFKGPRDYNPISSSICHLTNESDGHTTSLYGIGFGPFIITNKHLFRRNNGTLVVQSLHGVFKVKDTTTLQQHLVDGRDMIIIRMPKDFPPFPQKLKFREPQWEERICLVTTNFQTKSMSSMVSDTSCTFPSGDGIFWKHWIQTKDGQCGSPLVSTRDGFIVGIHSASNFTNTNNYFTSVPKNFMELLTNQEAQQWVSGWRLNADSVLWGGHKVFMVKPEEPFQPVKEATQL [R106W] | 0.127 | 0.0996 | 0.116 | 0.136 | 0.075 | 0.114 | 0.0857 | 0.0851 | 0.0857 | 0.114 | 0.13 | 0.107 | 0.103 | 0.0894 | 0.0983 | 0.0936 | 0.0922 | 0.0897 | 
MGESLFKGPRDYNPISSSICHLTNESDGHTTSLYGIGFGPFIITNKHLFRRNNGTLVVQSLHGVFKVKDTTTLQQHLVDGRDMIIIRMPKDFPPFPQKLKFREPQRKERICLVTTNFQTKSMSSMVSDTSCTFPSGDGIFWKHWIQTKDGQCGSPLVSTRDGFIVGIHSASNFTNTNNYFTSVPKNFMELLTNQEAQQWVSGWRLNADSVLWGGHKVFMVKPEEPFQPVKEATQL [E107K] | 0.112 | 0.0941 | 0.141 | 0.118 | 0.0856 | 0.102 | 0.0977 | 0.106 | 0.0772 | 0.11 | 0.106 | 0.151 | 0.0951 | 0.113 | 0.114 | 0.115 |  |  | 0.124
MGESLFKGPRDYNPISSSICHLTNESDGHTTSLYGIGFGPFIITNKHLFRRNNGTLVVQSLHGVFKVKDTTTLQQHLVDGRDMIIIRMPKDFPPFPQKLKFREPQRSERICLVTTNFQTKSMSSMVSDTSCTFPSGDGIFWKHWIQTKDGQCGSPLVSTRDGFIVGIHSASNFTNTNNYFTSVPKNFMELLTNQEAQQWVSGWRLNADSVLWGGHKVFMVKPEEPFQPVKEATQL [E107S] | 0.117 | 0.106 | 0.0984 | 0.0876 |  | 0.104 | 0.0854 | 0.0994 | 0.108 |  | 0.105 | 0.116 | 0.147 | 0.119 | 0.122 | 0.0923 | 0.084 | 0.107 | 
MGESLFKGPRDYNPISSSICHLTNESDGHTTSLYGIGFGPFIITNKHLFRRNNGTLVVQSLHGVFKVKDTTTLQQHLVDGRDMIIIRMPKDFPPFPQKLKFREPQREEHICLVTTNFQTKSMSSMVSDTSCTFPSGDGIFWKHWIQTKDGQCGSPLVSTRDGFIVGIHSASNFTNTNNYFTSVPKNFMELLTNQEAQQWVSGWRLNADSVLWGGHKVFMVKPEEPFQPVKEATQL [R109H] | 0.127 | 0.117 |  |  | 0.0821 |  |  | 0.0951 |  |  |  | 0.0996 | 0.122 | 0.101 |  | 0.0905 |  |  | 0.0917
MGESLFKGPRDYNPISSSICHLTNESDGHTTSLYGIGFGPFIITNKHLFRRNNGTLVVQSLHGVFKVKDTTTLQQHLVDGRDMIIIRMPKDFPPFPQKLKFREPQREERMCLVTTNFQTKSMSSMVSDTSCTFPSGDGIFWKHWIQTKDGQCGSPLVSTRDGFIVGIHSASNFTNTNNYFTSVPKNFMELLTNQEAQQWVSGWRLNADSVLWGGHKVFMVKPEEPFQPVKEATQL [I110M] | 0.101 | 0.0664 | 0.104 |  |  | 0.0802 | 0.076 | 0.0672 |  |  | 0.0435 | 0.0827 | 0.0682 |  |  | 0.0774 | 0.0701 |  | 
MGESLFKGPRDYNPISSSICHLTNESDGHTTSLYGIGFGPFIITNKHLFRRNNGTLVVQSLHGVFKVKDTTTLQQHLVDGRDMIIIRMPKDFPPFPQKLKFREPQREERQCLVTTNFQTKSMSSMVSDTSCTFPSGDGIFWKHWIQTKDGQCGSPLVSTRDGFIVGIHSASNFTNTNNYFTSVPKNFMELLTNQEAQQWVSGWRLNADSVLWGGHKVFMVKPEEPFQPVKEATQL [I110Q] | 0.0504 | 0.0523 | 0.0504 | 0.0684 |  |  | 0.0635 | 0.0596 |  | 0.0709 |  | 0.0604 |  | 0.0592 | 0.0541 | 0.0564 | 0.041 | 0.0227 | 
MGESLFKGPRDYNPISSSICHLTNESDGHTTSLYGIGFGPFIITNKHLFRRNNGTLVVQSLHGVFKVKDTTTLQQHLVDGRDMIIIRMPKDFPPFPQKLKFREPQREERINLVTTNFQTKSMSSMVSDTSCTFPSGDGIFWKHWIQTKDGQCGSPLVSTRDGFIVGIHSASNFTNTNNYFTSVPKNFMELLTNQEAQQWVSGWRLNADSVLWGGHKVFMVKPEEPFQPVKEATQL [C111N] | 0.137 | 0.0964 | 0.0928 | 0.153 | 0.0734 | 0.0707 | 0.073 |  |  | 0.05 |  |  | 0.0848 | 0.0919 |  | 0.0895 | 0.0989 |  | 
MGESLFKGPRDYNPISSSICHLTNESDGHTTSLYGIGFGPFIITNKHLFRRNNGTLVVQSLHGVFKVKDTTTLQQHLVDGRDMIIIRMPKDFPPFPQKLKFREPQREERICLTTTNFQTKSMSSMVSDTSCTFPSGDGIFWKHWIQTKDGQCGSPLVSTRDGFIVGIHSASNFTNTNNYFTSVPKNFMELLTNQEAQQWVSGWRLNADSVLWGGHKVFMVKPEEPFQPVKEATQL [V113T] | 0.0882 |  | 0.105 | 0.0597 | 0.0843 | 0.0742 | 0.0702 | 0.0764 | 0.0786 | 0.0767 | 0.0911 | 0.0793 | 0.0873 | 0.0852 |  | 0.073 |  | 0.0836 | 0.0793
MGESLFKGPRDYNPISSSICHLTNESDGHTTSLYGIGFGPFIITNKHLFRRNNGTLVVQSLHGVFKVKDTTTLQQHLVDGRDMIIIRMPKDFPPFPQKLKFREPQREERICLVPTNFQTKSMSSMVSDTSCTFPSGDGIFWKHWIQTKDGQCGSPLVSTRDGFIVGIHSASNFTNTNNYFTSVPKNFMELLTNQEAQQWVSGWRLNADSVLWGGHKVFMVKPEEPFQPVKEATQL [T114P] | 0.0765 | 0.0736 | 0.0746 | 0.094 |  |  |  |  | 0.0697 |  | 0.088 | 0.0931 |  | 0.0662 | 0.086 |  | 0.0841 |  | 

From the supplement of paper PMC12217912
